Data from paper PMC10668032.
This is one part of the list. At the low end of the ranking, values are background and their order means little.

The sequences below were run against SIX1-Q177R homeodomain (UniProt Q15475) (assay: universal protein binding microarray). Settings: Universal all-10-mer PBM (8x60K, AMADID 030236), 300 nM GST-tagged protein, Alexa Fluor 488 anti-GST; buffer, salt, pH and temperature not stated; high values mean tight binding; most listed sequences are background and not binding sites; double strand, one strand shown.
With CACCTTTC the binding signal was 0.195 E-score. ACAGACAA showed a binding signal of -0.109 E-score. Sequence ATTGGGAC has a binding signal of -0.101 E-score. With ATATCCCC the binding signal was 0.197 E-score. GGTAGCTA was tested, and the binding signal was -0.0627 E-score. In the case of AGCTGTGG, the binding signal is reported as 0.132 E-score. In the case of CGACAAAC, the binding signal is reported as -0.0296 E-score. Sequence TCAGATAA has a binding signal of -0.144 E-score. For GCACGTCA, the binding signal was -0.135 E-score. CATGATTA was tested, and the binding signal was -0.262 E-score. In the case of CTTCTTAC, the binding signal is reported as 0.0698 E-score. Work on AACACGTC yielded a binding signal of 0.309 E-score. CCCCAGGG gave a binding signal of 0.137 E-score. With AGTGGGAA the binding signal was -0.162 E-score. In the case of TGGGACAA, the binding signal is reported as -0.177 E-score. Work on GATGGTAA yielded a binding signal of -0.0537 E-score. With CACAGGTC the binding signal was -0.0926 E-score. Sequence CTCAGCAG has a binding signal of -0.0965 E-score. GTAGATAA was tested, and the binding signal was -0.0196 E-score. AGACTGCG showed a binding signal of -0.148 E-score. Work on AGTCTAAT yielded a binding signal of -0.151 E-score. CAGATCAA gave a binding signal of 0.0168 E-score. AGTCATTA was tested, and the binding signal was -0.0506 E-score. In the case of CGTAGATA, the binding signal is reported as -0.0344 E-score. Sequence AACTGCGG has a binding signal of -0.182 E-score. CGGCGGCA was tested, and the binding signal was -0.0558 E-score. In the case of AAAGTTGA, the binding signal is reported as -0.196 E-score. With CTCTCCGC the binding signal was -0.185 E-score. Sequence ACGATCCG has a binding signal of 0.232 E-score. For GCATCGTA, the binding signal was -0.076 E-score. With CATCCACC the binding signal was 0.0323 E-score. For AAACGGCC, the binding signal was -0.159 E-score. Work on CGAAAACA yielded a binding signal of 0.186 E-score. TCGACACA was tested, and the binding signal was 0.188 E-score. For AATTATCA, the binding signal was -0.155 E-score. Work on CAATTACG yielded a binding signal of 0.0144 E-score. For CCATATGA, the binding signal was -0.0788 E-score. GCCGCTGA gave a binding signal of -0.267 E-score. CCTGCAGA was tested, and the binding signal was 0.106 E-score. Work on ATCGTCCC yielded a binding signal of 0.0717 E-score. Sequence CTGCACAC has a binding signal of 0.247 E-score. With AACCGTAG the binding signal was -0.335 E-score. Work on TCCCCCAA yielded a binding signal of 0.0244 E-score. With GGACCGTA the binding signal was -0.159 E-score. Work on AGATAGTC yielded a binding signal of 0.118 E-score. AGTAGAAT was tested, and the binding signal was -0.152 E-score. ACCCAATG was tested, and the binding signal was 0.0984 E-score. With ACAAAAAT the binding signal was -0.137 E-score. AAGTTTAT gave a binding signal of -0.158 E-score. AAGACTCG showed a binding signal of -0.055 E-score. With AGGCAGCA the binding signal was -0.219 E-score. In the case of ATATGGAT, the binding signal is reported as -0.0172 E-score. With GCTAAGAA the binding signal was -0.182 E-score. Sequence CCGATAAG has a binding signal of -0.12 E-score. For AACTTTGA, the binding signal was -0.191 E-score. CCAGGGAC showed a binding signal of -0.107 E-score. Sequence CTGTGGAA has a binding signal of -0.179 E-score. ACTGTAAC was tested, and the binding signal was 0.0658 E-score. AACGGCTG showed a binding signal of -0.123 E-score. CGACGCCG gave a binding signal of 0.118 E-score. For CGAGTATA, the binding signal was -0.178 E-score. In the case of CATATGGC, the binding signal is reported as -0.129 E-score. ATTCCGAA showed a binding signal of -0.154 E-score. GATGTGGC showed a binding signal of -0.0811 E-score. With TCGCCCGA the binding signal was 0.0414 E-score. ACCCAACA gave a binding signal of 0.251 E-score. Sequence CAAGTTAC has a binding signal of -0.109 E-score. For CGAAAGAA, the binding signal was -0.169 E-score. With GGCGGACC the binding signal was 0.00194 E-score. CATTCTAA was tested, and the binding signal was -0.203 E-score. With GCCTACCA the binding signal was -0.281 E-score. In the case of AACCTGAA, the binding signal is reported as -0.129 E-score. Work on AAGATGGC yielded a binding signal of -0.0948 E-score. AAGAACGG gave a binding signal of -0.103 E-score. AGAGTTAT was tested, and the binding signal was 0.0409 E-score. CGGCCAAC was tested, and the binding signal was 0.0603 E-score. In the case of GGCATCCA, the binding signal is reported as -0.0943 E-score. CGTCAATC showed a binding signal of -0.19 E-score. CCTAGATC gave a binding signal of -0.137 E-score. AAGCAGCA showed a binding signal of -0.266 E-score. GTACGACA gave a binding signal of 0.297 E-score. Sequence CCACGTGA has a binding signal of 0.0106 E-score. In the case of CCCTGAAG, the binding signal is reported as 0.0625 E-score. GTGGACAA gave a binding signal of 0.0232 E-score. Work on CAATCTTC yielded a binding signal of -0.282 E-score. With GCGTGTAC the binding signal was 0.439 E-score. AAGGCGGG showed a binding signal of 0.132 E-score. GAGTGGGA gave a binding signal of -0.0417 E-score. CCGACACG gave a binding signal of 0.418 E-score. ATTCTGCG gave a binding signal of -0.175 E-score. AACTTTTA was tested, and the binding signal was -0.248 E-score. Work on CATAAGTA yielded a binding signal of -0.0142 E-score. CAGAATGG was tested, and the binding signal was -0.134 E-score. CGACGTAG was tested, and the binding signal was -0.0563 E-score. AAGTGTCG showed a binding signal of 0.384 E-score. Work on CCGTCGTC yielded a binding signal of -0.148 E-score. AGCTATGG showed a binding signal of -0.216 E-score. AACTGTCA gave a binding signal of -0.199 E-score. TACAGCTA gave a binding signal of 0.107 E-score. Sequence ACGATTGA has a binding signal of -0.0565 E-score. Work on CCCCATCC yielded a binding signal of 0.21 E-score. In the case of GAAGTGCC, the binding signal is reported as -0.0872 E-score. AGGTTAAT showed a binding signal of -0.108 E-score. For AGAATCCG, the binding signal was -0.0261 E-score. AATTGACG was tested, and the binding signal was -0.0709 E-score. Sequence TCCCTGCA has a binding signal of 0.0634 E-score. ATATGTGG was tested, and the binding signal was 0.102 E-score. GAGCAAGC gave a binding signal of -0.255 E-score. For CCGTTCTA, the binding signal was 0.0384 E-score. Work on ATAGCGGC yielded a binding signal of -0.0632 E-score. AAAAACCA showed a binding signal of -0.0871 E-score. In the case of CAGCCACA, the binding signal is reported as 0.111 E-score. ATAATCTC showed a binding signal of -0.00122 E-score. CTCGCTTA was tested, and the binding signal was -0.043 E-score. In the case of CTACTCTA, the binding signal is reported as -0.00995 E-score. Sequence CACACATA has a binding signal of 0.15 E-score. Sequence AAAAATCG has a binding signal of -0.238 E-score. Sequence CTCGATGA has a binding signal of -0.0836 E-score. Sequence CACTGAGC has a binding signal of 0.115 E-score. Work on AGCTTCGA yielded a binding signal of -0.188 E-score. ACGACCCG gave a binding signal of 0.179 E-score. For AGGCACCA, the binding signal was 0.178 E-score. CAACGTCC gave a binding signal of -0.0697 E-score. With CCTGTGCA the binding signal was 0.0774 E-score. AATCTAGT showed a binding signal of -0.163 E-score. AGGCCCTG showed a binding signal of -0.123 E-score. ACATGGGC was tested, and the binding signal was -0.217 E-score. Work on ACAACATG yielded a binding signal of -0.0603 E-score. AAGAAACG was tested, and the binding signal was -0.0149 E-score. CGGGCGCA showed a binding signal of 0.0465 E-score. With GTTAGAGA the binding signal was -0.225 E-score. With AAAGGCCA the binding signal was 0.128 E-score. In the case of CATTTGTA, the binding signal is reported as -0.0203 E-score. In the case of ATGTTCCC, the binding signal is reported as -0.115 E-score. ACACGGCA gave a binding signal of 0.374 E-score. With ATCGGAAC the binding signal was -0.106 E-score. AACCCTGT showed a binding signal of -0.037 E-score. With CGCTGAAG the binding signal was -0.218 E-score. With GGCGTGTA the binding signal was 0.438 E-score. AAAGCCGT was tested, and the binding signal was -0.11 E-score. Sequence CCTTACGC has a binding signal of -0.0815 E-score. CGAAACCA showed a binding signal of 0.00389 E-score. Sequence AATAGTGA has a binding signal of -0.237 E-score. ACTCAAGC showed a binding signal of -0.0937 E-score. Sequence ATGTGCCA has a binding signal of -0.0933 E-score. With CGAGATCC the binding signal was 0.0469 E-score. AAGCGTTC showed a binding signal of -0.134 E-score. Work on GGGCTAAC yielded a binding signal of -0.0357 E-score. Sequence CCGGAAAA has a binding signal of -0.0172 E-score. Sequence ACGTAACC has a binding signal of -0.041 E-score. In the case of GCCTTCGA, the binding signal is reported as -0.172 E-score. With TCCACAAA the binding signal was -0.0503 E-score. Work on AGTGTTAT yielded a binding signal of 0.395 E-score. In the case of GAGGAGAC, the binding signal is reported as -0.157 E-score. With GGGGGAGA the binding signal was -0.0362 E-score. With AGCAAGTC the binding signal was -0.322 E-score. Work on ACTCACCC yielded a binding signal of 0.0264 E-score. AGAGTGCG was tested, and the binding signal was 0.0717 E-score. GACTTAAC was tested, and the binding signal was -0.0325 E-score. Sequence ATCCGGGA has a binding signal of 0.061 E-score. With AAAGTGAC the binding signal was -0.00315 E-score. Work on GGCGCGCC yielded a binding signal of -0.0404 E-score. With GAGTGAAC the binding signal was -0.0846 E-score. In the case of CGACTTGA, the binding signal is reported as -0.258 E-score. ATATCCAA was tested, and the binding signal was -0.116 E-score. AATGATGG was tested, and the binding signal was -0.126 E-score. ACAGAATA was tested, and the binding signal was 0.00178 E-score. ATCTACAC was tested, and the binding signal was 0.404 E-score. GCACGGGA showed a binding signal of -0.0239 E-score. In the case of ACGGTCTA, the binding signal is reported as -0.27 E-score. Work on CGTAAAAC yielded a binding signal of -0.0532 E-score. With AATACCAC the binding signal was 0.0356 E-score.
